# Data taken from the supplement of paper PMC3334620.
# In all, about 33,000 sequences were measured (“E-score (-0.5 to 0.5)”: median about -0.016, highest 2% from about 0.31 on). The list shows a part of the results.
# Biological target: Cst6 (UniProt P40535)
# Assay: PBM E-score (8-mer binding enrichment) (E-score (-0.5 to 0.5)); higher = stronger / more preferred TF binding; most listed sequences are background and not binding sites
# Conditions: protein concentration: 200 nM; construct: GST-DNA-binding domain
# In short: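 For each ungapped eight-base word taken together with its reverse complement, the Universal PBM Analysis Suite assigned an E-score. Binding data came from GST-tagged yeast transcription factors, applied at about 100-200 nM, on universal all-10-mer Agilent arrays made double-stranded by primer extension. Fluorescent anti-GST marked bound protein, and scans were normalised with masliner.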
row,Sequence,PBM E-score
1,TCAAAGCA,-0.014
2,GCGAGCTA,-0.0222
3,AGAGTAAA,0.0878
4,CGCTACGA,-0.0135
5,CGTGCCCC,-0.106
6,CACAGGAG,-0.0229
7,CTCGAACC,-0.0843
8,CTGTGTGC,-0.0916
9,TAACAGTA,0.163
10,CATTGTAG,0.00951
11,CTTGTTCC,-0.101
12,GAACACTA,0.049
13,ATTGTTTA,0.206
14,AGGTATTG,0.0278
15,ACGACCTC,0.128
16,CCTCCAGC,-0.413
17,ATATACAT,0.16
18,GAAACTAC,0.0682
19,CGTGTCAG,0.0262
20,AAATTCCT,0.00077
21,ATAGTTCG,0.0128
22,CTGTGAAA,0.149
23,CAGGCTAG,-0.344
24,ACGCACGA,0.194
25,ATGTGGAC,-0.133

row,Sequence,PBM E-score
1,CTACTTGA,0.0439
2,GCTCTAGA,-0.274
3,ATGGACGA,0.103
4,GGCAGCCA,-0.243
5,CCTTCTTA,-0.105
6,CAGATCCC,-0.216
7,CACAACCG,0.143
8,ATAAGATC,0.16
9,GGACCGGA,-0.307
10,AGGACCGG,-0.421
11,GAATATCA,0.0496
12,CGTGAAGA,0.00552
13,CTGGACGC,-0.244
14,ACCAAAAC,0.0609
15,ACCGGGAG,-0.317
16,ATGTCTCC,-0.135
17,TAACACTA,0.225
18,TGAGATAA,0.19
19,CATGCTGG,-0.283
20,CTCTGATC,-0.0257
21,ATCCAAGA,0.074
22,CGCCAAAA,0.113
23,ACTTCGAC,0.108
24,GACGAGCA,-0.0395
25,ACGACAGA,-0.00441

row,Sequence,PBM E-score
1,GTGGAATA,0.054
2,ACTCCGCG,-0.0486
3,ACCGGCGC,0.0961
4,ATGTTGTG,0.101
5,CATTCTTA,0.0912
6,AGGAACTG,-0.254
7,ACCGCCAA,-0.0862
8,TATTCCAA,0.0973
9,TCGACCAA,0.0787
10,GTGGCGTA,0.149
11,GCGTAGAC,-0.149
12,CTGTTACC,-0.117
13,GGCCCAGA,-0.383
14,AAGCCGAT,0.139
15,TTACAAAA,0.256
16,ATAATCAC,0.228
17,CCTCGTCC,-0.35
18,CCTCTGAA,-0.187
19,GGTATGAC,0.191
20,ATATGTTC,-0.0116
21,CCGTGCTC,0.00474
22,AAAGAATG,0.187
23,GACCTGGA,-0.283
24,AACCTCCT,-0.216
25,GCCCCACC,-0.00672

row,Sequence,PBM E-score
1,AGTGGCCC,-0.195
2,CAATCCGA,0.0251
3,AGCCTAAC,-0.0372
4,AGGTCATA,0.168
5,GGACTAAC,-0.139
6,CAGTCGAG,-0.173
7,ACATAAAT,0.264
8,CCGAGCTC,-0.189
9,AGCAACAT,0.0565
10,CCAGTGCA,-0.185
11,AGAAGATC,-0.0477
12,CCCCGGGA,-0.266
13,ACTACCCA,-0.231
14,CCTGCGGC,-0.138
15,AAACCACC,-0.0642
16,CAGGCCGG,-0.3
17,ACGAAATA,0.129
18,GCCGTACC,0.213
19,TAGATACA,0.102
20,AAGGCGTC,0.201
21,AACCACAG,-0.105
22,GTCGAGGA,-0.131
23,ACCATGCC,0.0145
24,GAAATATA,0.254
25,CAAGAGAG,-0.0559

row,Sequence,PBM E-score
1,CGCCTGTC,-0.21
2,CAGTCAGG,-0.173
3,ATCGTCAG,0.131
4,CTACTGCA,-0.101
5,ATCACTGA,0.185
6,ATTGTGAG,0.0813
7,AATAGACG,0.18
8,CCTCGCAG,-0.231
9,ACGCCAAT,0.223
10,CCCTCATC,-0.302
11,CATGCGAA,0.111
12,CTGTAAAG,-0.137
13,CAGTCCGA,-0.133
14,CCGTGGAG,-0.229
15,CCTGCCCA,-0.254
16,CTCACTAA,0.204
17,CTAATATC,0.0804
18,GCCAGATA,-0.0414
19,ACCATCAA,0.0154
20,CCGTCAGC,0.0302
21,CCTATAGC,-0.145
22,ACGTCATA,0.494
23,AACTGCCA,-0.155
24,AGCGCATA,-0.0255
25,CGCTCAGA,-0.08

row,Sequence,PBM E-score
1,CCTTCGGA,-0.101
2,AGCATACG,-0.0565
3,ATCCCACG,-0.0387
4,CTTAGGTC,-0.0809
5,CGCAAGAA,0.116
6,CCGAGACG,-0.118
7,AACTGCCG,0.114
8,GCAAGAAA,0.147
9,ATCGTATC,-0.0316
10,AATACCGG,-0.0505
11,AGTCCTTG,-0.195
12,GATGGCAA,0.0532
13,GGACGGAC,-0.203
14,TAAAGCTA,0.0383
15,CGCCGCTA,-0.0394
16,AGTGCCCA,-0.148
17,AACGGTCA,0.0769
18,GCAGGGCC,-0.233
19,CGACTTTC,0.022
20,GCACAGTA,0.171
21,CATGGGAC,-0.159
22,GGGAAACC,-0.0148
23,AAATCCGG,-0.0279
24,GAACCGAA,0.17
25,AAGTTGAC,0.145

row,Sequence,PBM E-score
1,CATCACCC,0.308
2,GGAGCAAC,-0.187
3,ACAGCGCT,-0.00804
4,CAAAAGCA,-0.0642
5,GTGAAAAC,0.0482
6,AGCGAAGC,-0.145
7,CAGGAAAC,-0.0745
8,AACTTACG,0.301
9,TTAATCAA,0.146
10,GTACTATA,0.0192
11,CCGAGACC,-0.145
12,GGGAATAC,0.031
13,GGATGCCA,-0.201
14,GGTCAGTA,-0.128
15,ACAGTCTA,-0.119
16,CCACTTGA,0.0541
17,TAGCACTA,-0.115
18,GCTATTAC,0.244
19,CTAAACAA,0.0809
20,ATCCCCCG,-0.244
21,ACCAACCT,-0.062
22,CGAGGGGA,-0.0983
23,CGTTAATC,0.162
24,AGGTAAAT,0.0678
25,CGGGGCTC,-0.307

row,Sequence,PBM E-score
1,GGTGATAA,0.0659
2,GGACTGAA,-0.075
3,CCAGTGTC,-0.108
4,AGCGGTTC,-0.092
5,ACACCTAA,-0.00262
6,ACGGAATG,0.0531
7,CAGAAACA,0.215
8,GCAAACTA,0.0687
9,AATCCGAT,0.119
10,ATCTCTGA,0.0114
11,CCTAACCG,-0.172
12,CAAAACGG,0.131
13,GCTCTTCC,-0.101
14,AAACCGAC,0.00998
15,ACTTGAAG,0.124
16,ATTCATCG,0.0577
17,CGTGCCGC,0.171
18,ACACTGAG,0.0124
19,TCATAAAA,0.265
20,CCGCGGGC,0.0112
21,CTAAATGA,0.176
22,AAGCCCTC,-0.258
23,AAAGTGGT,0.00383
24,ACACATAC,-0.0886
25,ATCAAGCC,0.0709

row,Sequence,PBM E-score
1,CTTCATCC,-0.151
2,AGAATCAT,0.122
3,CTCGAGCA,0.0309
4,CGGCCTTA,0.0171
5,ACAAGTGC,-0.0973
6,AGCGATGC,-0.21
7,GCGTGGCC,-0.226
8,ATTGGTAA,0.0247
9,ACAGATGA,0.199
10,AACACCCT,-0.205
11,ACGGGGAA,-0.0312
12,AAACCAGA,0.152
13,GGTTCGAA,0.135
14,CAGTGAGG,-0.106
15,CCTCTCAA,-0.193
16,CCCCGCAA,-0.00488
17,CCACCTTC,-0.313
18,GAACCCTA,0.00298
19,AGAGTTTC,-0.127
